Data as given in the supplement of paper PMC11417369.
± gives the standard deviation of the averaged measurements. Some of the results follow.

tested on: PfAP2-I AP2 domain 3 (GST-tagged); test: gcPBM binding intensity (ln(normalized median fluorescence intensity)); higher = stronger DNA binding
Method in brief: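 The highest Masliner-normalised natural-log median intensity across replicate spots of either probe orientation is reported as binding intensity. GST-tagged P. falciparum DNA-binding domains expressed in E. coli were applied for 1 h to an Agilent 4 × 180k array of primer-extended double-stranded 36-bp intergenic genomic probes plus negative controls, and bound protein was detected with Alexa488 anti-GST antibody and scanned at 488 nm.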

Sequence	gcPBM binding intensity (ln)
AAGTTATTTATATATACACACAAATATAAATAATAT [CACACA_site1228]	7.68 ± 0.41
CTCAAATTTATTAGTGGTACATAACCAAGGAAATAA [XGTACX_site225]	8.03 ± 0.52
TTAATTGAAACTTATTGTACTTTTTTTTTTTTTTTT [XGTACX_site8162]	8.64 ± 0.39
ATAAATAAAAATAGAACACACATATGTTTTTTTTTT [CACACA_site3556]	7.58 ± 0.57
CCTAGAAAAAAGAACTGTACATATATATATAAATAT [XGTACX_site1680]	7.75 ± 0.42
ATATGCAGAGACTGTTTGCACTTTTTTATTTTATGT [GTGCAC_site9695]	9.63 ± 0.19
TGAAAAAATATAATTTGTACATATCAGGCAAAAATG [XGTACX_site1824]	7.96 ± 0.51
AGGACAAGGGTTACATGTACATATATATATATATAT [XGTACX_site901]	9.66 ± 0.15
TTTATTAATTTATAGTGTACATATTAATAATATATT [XGTACX_site7949]	7.8 ± 0.36
ATATATATTATATATTGTACATATTATATTCATTAT [XGTACX_site1766]	7.82 ± 0.44
AAAAAATAAAACATATATAATATATAATATATATAT [GTGCAC_negctrl_site447]	8.62 ± 0.12
AATGTGAAAACGTGTACACATTTTATTTAATTTATC [CACACA_site5966]	7.98 ± 0.4
ATAAATTATATTATTGAACACACGTTTGGTAATGTT [CACACA_site2662]	7.77 ± 0.55
AAAAAAATAATAAAAAGTACAAAATGTAGAAAATGT [XGTACX_site5018]	8.1 ± 0.75
TTTTTTTTTATAGCTAAACACACATAAGAATATATG [CACACA_site8282]	7.72 ± 0.69
TATAAATATAAAAGGAGTACAAATATATATATATAT [XGTACX_site1386]	9.29 ± 0.35
AGTTATAATAAAAAATGTACGTATTATCATTAAGAA [XGTACX_site4244]	7.86 ± 0.55
GAAAATAAAAAATATGAACACACATATATAACAAAA [CACACA_site7975]	7.85 ± 0.49
TCCTAATATATGTATGCACACACAATATATACATAT [CACACA_site9111]	9.01 ± 0.16
AAAAAAATTAAACATACACACGTTACTATTTTTATA [CACACA_site5009]	7.61 ± 0.49
AAAATTGATATATGCACACATATATATATTAAATAT [CACACA_site763]	8.965 ± 0.064
AAAAAAAAAAAAAACACACATACACATATATTTTTA [CACACA_site3893]	8.21 ± 0.43

Sequence	gcPBM binding intensity (ln)
TTTCATTCTGGTATCACACATTTATTTTCTAGTTTA [CACACA_site4286]	8.01 ± 0.65
AGGAAAAAATCGAGTAGTACACATTTAGAAATATAA [XGTACX_site8019]	7.87 ± 0.49
ATATCACATATATATATATATATATATATATATATA [XGTACX_negctrl_site463]	9.14 ± 0.23
AACAAGGCCCGGTACTGTACATTTTTTCATAACATT [XGTACX_site6134]	7.51 ± 0.69
TATATACATATATACACACACATATATTATATATAT [CACACA_site275]	8.3 ± 0.54
GTATGTATATTTATCTGTACATATTTATGTATTCTT [XGTACX_site2112]	7.66 ± 0.45
TATTAATAATTAAGTTGTACATTAATTAATATACTG [XGTACX_site6994]	7.46 ± 0.41
TTTAATATTAATAATTGTACATTTTCATAAATACGC [XGTACX_site2837]	7.64 ± 0.44
TTTAAACCTTAATATTGTACGCAAAAAAAAAAAGAA [XGTACX_site3757]	8.12 ± 0.45
TTTATGTAGGAACTAACACACATTGTAAGATTCAGA [CACACA_site1998]	7.53 ± 0.56
GGAACTTTTGGAGGTGCATGCGGAGCAATCTTTTCA [TGCATGCA_site454]	8.36 ± 0.32
TTATTAATTTATAAATGTACGAATTTTTTATTTAAC [XGTACX_site7605]	7.7 ± 0.42
CATATCAATAATATCACACATATATGTGATTTTATT [CACACA_site5053]	7.45 ± 0.54
CCCCTTAATTAAAGGAGTACTATTTGTGAATAATAT [XGTACX_site4715]	8.62 ± 0.19
TTTTTTTTTTATTTTGCACACTTCTAATTTAGTTGT [CACACA_site3429]	10.2 ± 0.16
AAAAAAGTAAAAAGTGCATGTAAAATATAAGTATCT [TGCATGCA_site55]	9.05 ± 0.3
GTTATTCTTAATTTTTGTACACATTTTTATATTATT [XGTACX_site7227]	8.35 ± 0.4
AAAAAAATTAAACACACACACACATATATATATATA [CACACA_site4718]	9.53 ± 0.18
GAACAAAAGGAATGTTGTACATAAAAAATGAAAAAT [XGTACX_site3929]	8.03 ± 0.52
ATATATATGTATATGTGTACTTATATTTGTCATTTT [XGTACX_site1317]	7.87 ± 0.6
TCCTGCCTCTCTTTGGTGCGTTGTAACCCTCGAGGA	10.3 ± 0.11
AAAATTTAATATAATGCACACATAAAAAAAAATTCA [CACACA_site8640]	10.9 ± 0.92

Sequence	gcPBM binding intensity (ln)
TAAATTATTTATAAAGCACACAAGAAAAAATAAAAT [CACACA_site2132]	9.96 ± 0.52
ATATTAATATACATATGTACATATATATATATATAT [XGTACX_site7425]	9.31 ± 0.37
TAAAGGCAAACAAACACACACACATATATACATATA [CACACA_site2123]	7.82 ± 0.26
AAAAATTAACAAAAGGTGCAAACAAATAGTGGTTTT [GTGCAC_site9998]	10.7 ± 0.11
CCAATACTGTTTAAATGTACAAGTAGGAGGTTAATT [XGTACX_site7260]	7.84 ± 0.67
AAATTGTAGAAGCGTATTTCTCGAACTGGATGAATA [CACACA_negctrl_site1373]	7.61 ± 0.52
AATTAATGGAAACAAGTCAAATGATCTTTATGCATA [TGCATGCA_negctrl_site540]	8.04 ± 0.16
TAAAGTGTAAAGAAGGTGCTCATTATTTATTTTTTT	8.4 ± 0.31
TTTATATCGACTCTTCTTTATATAAGTTGTGATGTT [TGCATGCA_negctrl_site362]	7.53 ± 0.28
ATATGATATATTTTATGTACATATAAAACATATATA [XGTACX_site4297]	7.62 ± 0.35
TTATACTTTTTTTCTTGGTGTAGAAAAAAAAGTTAG [CACACA_negctrl_site1207]	7.86 ± 0.33
TTTATATTAGGTCTTGAACGATTTTCATCATTATTA [TGCATGCA_negctrl_site100]	7.3 ± 0.64
AAAAAAGAAACAAACACACATACATACAAACAAACA [CACACA_site142]	8.18 ± 0.26
AGTTTCCTTGAGAAAAGTACGTAATACTACATATAT [XGTACX_site818]	7.63 ± 0.47
TTTAAAAGATAAAGACTGCACTTTAAGCACACAAAT [GTGCAC_site9752]	9.86 ± 0.15
AATAAATATATAAATACACACAAACATACAGATATA [CACACA_site6088]	7.79 ± 0.64
AATTCCTATAATGAGAGTACGCATTAGAACAGTAGG [XGTACX_site5721]	8.03 ± 0.5
TTGATAAAAAAAAAAAAATAAAAAAAAAATAAAAAA [XGTACX_negctrl_site480]	7.6 ± 0.35
GATGTGATGTATTTGGTATTTTTCGATGTTGGTAGG [CACACA_negctrl_site355]	7.92 ± 0.42
TATTATATATCAAAATGTACATTAATTTGAGTAATT [XGTACX_site5434]	7.5 ± 0.49
TTACCTCTTTGAAATATACACACTAATCATATCAAC [CACACA_site8778]	7.88 ± 0.45
TTTTTGCTATTCTATTATATATATAATATATTTTAC [CACACA_negctrl_site262]	8.02 ± 0.66

Sequence	gcPBM binding intensity (ln)
TGTTCAGTAGGGCACACACACAACAAAATAAAAAAA [CACACA_site378]	8.79 ± 0.16
GAGATTTATTTATGTGCACACTAGAACAATTGGATC [CACACA_site2090]	9.99 ± 0.42
CTTTTTTCAAAACACACACACAAGAAAATATATATA [CACACA_site3109]	8.1 ± 0.49
TTTTTTTTTTTTGTGCGTACATACCATTTTAATAAT [XGTACX_site2760]	8.64 ± 0.8
TATAATAAAATATGTACACACATACACCCATATATA [CACACA_site4808]	7.84 ± 0.33
ACAAGTAATTAAGAGTGTACATAACTATAAATCCAA [XGTACX_site5215]	7.88 ± 0.35
TGTATGTATGTATTATTTGTTATTTTAATTTTTTTG [TGCATGCA_negctrl_site256]	8.46 ± 0.91
GATATGATGAGATTGATATTCATAAGAGGATTAATG [GTGCAC_negctrl_site515]	7.61 ± 0.47
AAAAATGATATGAGTTGTACATAAGTAAGAATTATT [XGTACX_site7089]	7.75 ± 0.57
TAAAAACGATTTTTTGCACACACATAATAAGCAGAA [CACACA_site3870]	9.31 ± 0.29
GGACAAGTTAAACGCACACAAATATATACCCCCATA [CACACA_site4996]	9.715 ± 0.078
ATTATAATTGCATATACACACAAAGGTTCATAACAA [CACACA_site7440]	8.05 ± 0.42
ACATATATAAAATAATGTACATTTTTAAGAATGCGT [XGTACX_site7654]	7.68 ± 0.49
AAAAAAAAAAAAAAAAGGGGGGGAGGGATTGAAAAA [CACACA_negctrl_site193]	9.64 ± 0.099
ACAGTATTTCGAGATGGTACACATATATATATATAT [XGTACX_site6880]	9.46 ± 0.38
AATGAGGATATATACACACATACATTAAAAAAATAT [CACACA_site1849]	7.92 ± 0.77
ATGAGTTACATGGGAAAAATATATATATATATATAT [CACACA_negctrl_site579]	9.44 ± 0.35
TGATAAATATGGAGCACACACACATAAACATACATA [CACACA_site420]	8.18 ± 0.26
TTTAAAAGATAAAACACACATACTAATAAAAAACAA [CACACA_site2556]	7.88 ± 0.52
TTGTATCCTTAATGCATGCACCAAATAACAAAAGTA	9.68 ± 0.34
TTGTTGTATTATTTATGTACATATGTATATGTATAT [XGTACX_site1315]	7.96 ± 0.47
AATCCTTACAGACACACACACACGAATAAATAAAAA [CACACA_site480]	8 ± 0.3
